The supplement of paper PMC11417369
± gives the standard deviation of the averaged measurements. This is one part of the list.

The sequences below were run on PfAP2-I AP2 domain 3 (GST-tagged) (assay: gcPBM binding intensity (ln(normalized median fluorescence intensity)); higher = stronger DNA binding).
Summary of the method: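 An Agilent 4 × 180k array carrying primer-extended double-stranded 36-bp intergenic genomic probes and negative controls received GST-tagged P. falciparum DNA-binding domains expressed in E. coli, about 25 μg on average, for 1 h. The binding buffer contained 1× PBS, 1% milk, 0.2 mg/ml BSA, 0.5% salmon testes DNA and 0.03% Triton X-100. Binding intensity is the top Masliner-normalised natural-log median intensity across replicate spots of either probe orientation, read after Alexa488 anti-GST antibody staining and a 488 nm scan.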

| Sequence | gcPBM binding intensity (ln) |
| --- | --- |
| TATATATATATATTATGTACATATATAAATTAACAT [XGTACX_site3368] | 9.12 ± 0.33 |
| AATATAGGAATATGCACACATATATACATACATACA [CACACA_site1521] | 9.235 ± 0.078 |
| TTTTTTAAAGTTTAAAGTACATATAAAAATATATAA [XGTACX_site5267] | 7.65 ± 0.2 |
| TATGAAAAAAAAAAAAAAAAAAAAAAAAAAAAAAAA [XGTACX_negctrl_site587] | 8.29 ± 0.84 |
| AAAAAAATAAAATATATATATATATATATATATATA [GTGCAC_negctrl_site706] | 9.55 ± 0.67 |
| TATATATGGATATATACACACAACGGTTATAAATAT [CACACA_site6655] | 7.68 ± 0.55 |
| AAGAAAAATACTACGTGTACCAAACTTCCTACCAAC [XGTACX_site1426] | 7.98 ± 0.67 |
| TATATATATATATTATGTACATATAAATATATTTTT [XGTACX_site1509] | 9.31 ± 0.49 |
| TGTAAATATAAAAGATAATGATAAAAGGGACATTTT [CACACA_negctrl_site661] | 7.81 ± 0.68 |
| AATATATATATGTGTACACATCCAAAATAGGCATAC [CACACA_site5705] | 8.32 ± 0.52 |
| ATATATATATAAATATGTACATATTTATATATGAAT [XGTACX_site3220] | 8.94 ± 0.092 |
| ATCTATATTATAATAACACACATATATTATAGTATA [CACACA_site6330] | 7.75 ± 0.54 |
| TTTTTATGTGTATATTATTACATTTACATCTTTAAC [CACACA_negctrl_site1676] | 7.84 ± 0.65 |
| ACAAGACAACAAGGAAGTACTCATAAATATATTTGG [XGTACX_site1423] | 7.78 ± 0.46 |
| CTCACATATATATATAGTACAATTTTTTTTTTTTTT [XGTACX_site5999] | 7.79 ± 0.49 |
| ATGTAGAATTGTAAATGTACATGAAACACATATTCA [XGTACX_site3436] | 7.64 ± 0.59 |
| ATAAAATTATCTACATGTACTCATATATATTTGTTT [XGTACX_site5911] | 7.99 ± 0.61 |
| AGAGAGAAAGTTATAACATGCAACAATTTTTAGAAG [TGCATGCA_site1] | 7.91 ± 0.71 |
| TATATATATATATGTGGTACATAAAATTATTATTTT [XGTACX_site4554] | 9.43 ± 0.41 |
| CTTTAAACCCTGAACACACACAAATACACCCAAAAA [CACACA_site4297] | 8.61 ± 0.17 |
| TTTGTATTAAAAAAAAAAAAAAAAAAAATGAATAAA [TGCATGCA_negctrl_site292] | 7.34 ± 0.41 |
| TTTTTTTTTTTTTTTTTTTTTTTTCATTTGATATTA [TGCATGCA_negctrl_site112] | 8.3 ± 0.7 |

| Sequence | gcPBM binding intensity (ln) |
| --- | --- |
| ATAACGGAAAAAAAAAGTACATGATATAAACATGAA [XGTACX_site8428] | 7.91 ± 0.29 |
| AAAAATAAGATATATACACACATATAAATATAAATA [CACACA_site7396] | 7.47 ± 0.57 |
| TTATTTATTCTATGTGCATGTTATTTTTTTTTTTCG [TGCATGCA_site262] | 8.16 ± 0.73 |
| ATACTATTATATATATGTACATATATATGATGCTCT [XGTACX_site1771] | 7.93 ± 0.53 |
| AAGGAGCCTATGAACACACACATGTACATATATTAA [CACACA_site4084] | 7.86 ± 0.54 |
| TTCGTTCTTTTATGCACACTCAACATATAAATTAAA [CACACA_site1209] | 10.2 ± 0.32 |
| TTATAATATATATGTAGTACTGTTTTTTTCTATTTT [XGTACX_site7749] | 7.78 ± 0.57 |
| TGTACAAATATGTACACACACACATATATATATATA [CACACA_site584] | 9.3 ± 0.38 |
| TATTATTTTAAAAATGCATGTTCATATGAAATAATA [TGCATGCA_site969] | 8.1 ± 0.57 |
| AGTAAATAATTATATACATGCATTTACTAATATTTA [TGCATGCA_site952] | 8.04 ± 0.56 |
| ATATGACGTAGTGGTGTACACACATGGTACCTTTAT [CACACA_site8436] | 8.39 ± 0.41 |
| AATATATATTTATGTACACACTCCAATACAGATACA [CACACA_site5481] | 8.06 ± 0.31 |
| CATATACATACACATACACACATACACCCATACACA [CACACA_site8514] | 8.395 ± 0.035 |
| TGTAAAAAATTTAACACACACATATATAAATATGTA [CACACA_site7261] | 7.58 ± 0.26 |
| TATATTATAATTTGAAGTACATTTTAAATTAACTAA [XGTACX_site1013] | 7.51 ± 0.29 |
| ATATAATAGTATATATGTACATATATTTAAATACTA [XGTACX_site1135] | 7.74 ± 0.4 |
| AGAGAGAGAAATACAAGTACATGTGAAACCAATCTA [XGTACX_site2767] | 7.86 ± 0.26 |
| AAAAAATAAAAAAAAACACACACATACAAGCATATA [CACACA_site8451] | 7.74 ± 0.43 |
| AAAAAAAACAAATACACACGCACACCGAAAAAAAAA [CACACA_site803] | 8.02 ± 0.53 |
| TTCAACATAATATGCACACAAAAATTATGGAACGAA [CACACA_site2111] | 8.96 ± 0.12 |
| AAAAAAAAAAAAATTGCACACAAAAAAAAAAAAAAA [CACACA_site8644] | 8.88 ± 0.25 |
| AAAAAAAAAAAACACACACACACACCCACAAAATAT [CACACA_site1447] | 8.24 ± 0.18 |

| Sequence | gcPBM binding intensity (ln) |
| --- | --- |
| AAAAAAAAATACCTACGTACATATATATATTATATA [XGTACX_site3983] | 7.64 ± 0.38 |
| CTTTATCTTCTCACGAAGATTGAATAAGGTATTCTT [XGTACX_negctrl_site307] | 7.14 ± 0.78 |
| CAGACAATAAAGAAGTGTACACATATATCAATAAAA [XGTACX_site4515] | 8.11 ± 0.67 |
| TTAATGCACTTTATTACACACACTAGTTCATTACCT [CACACA_site2294] | 11.5 ± 0.95 |
| TATTCACATACAGAAACACACACATATATATAAATT [CACACA_site9232] | 7.79 ± 0.43 |
| TTTGTGTGTGCGTGTGCATGTTGTTTTTTTCTATAA [TGCATGCA_site17] | 8.45 ± 0.48 |
| AATATAATAACTTATTGTACGAAATTATATCACCTT [XGTACX_site7883] | 7.67 ± 0.61 |
| TAATTAAGCATAAATATAATTTTATATTTTATTTCC [XGTACX_negctrl_site321] | 7.28 ± 0.44 |
| TAACATAGCAATGTTTCACACACAAGAAAAAATACA [CACACA_site8747] | 7.83 ± 0.64 |
| TGCAGTCTGGAGAAAAGTACATAGTATCTGGTAGCT [XGTACX_site2547] | 7.87 ± 0.66 |
| ATATATGTATATATTTGTACATATAATATTTTTTAA [XGTACX_site6345] | 7.31 ± 0.31 |
| ATTTGTAATTTATTCAAACACACAATTTGGACCTTT [CACACA_site1062] | 7.48 ± 0.57 |
| GAAATAAAAGATGGTTGTACACCGTTTTCTCATATA [XGTACX_site5368] | 7.75 ± 0.52 |
| TACATATATGATAAAAGTACATATAAATATACATAA [XGTACX_site3804] | 7.68 ± 0.33 |
| TATATGAATAAACATTGTACGTAAATATTAACTATC [XGTACX_site543] | 7.79 ± 0.47 |
| AAAAAAAATTATATATGTACTTATTAATCCTTTTAT [XGTACX_site1387] | 7.55 ± 0.38 |
| TATAATAATAATAATAATAATAATAATAATAATAAT [CACACA_negctrl_site905] | 8.04 ± 0.36 |
| CGCATAAAGACAAGAACACACATATAGATTGTAGTA [CACACA_site3693] | 7.47 ± 0.69 |
| TTATATATTAAGAAATGTACGAAAAAAAAAATTATA [XGTACX_site3893] | 7.78 ± 0.43 |
| AAGATGATAAAATATGTACACACAGTTTATACATTT [CACACA_site9341] | 7.7 ± 0.45 |
| CACCCACCCAGACACACACACACACCCCCACCCATA [CACACA_site367] | 8.99 ± 0.33 |
| ACATTTTAAATACGATGTACTTGAGTTTTTTTTAAA [XGTACX_site5833] | 7.5 ± 0.46 |

| Sequence | gcPBM binding intensity (ln) |
| --- | --- |
| AATTATTTATTGAGAGTGCAACAAATTATTTCAAAT [GTGCAC_site9461] | 9.69 ± 0.23 |
| TTTTTTTGCATGAGCAATAAAAAAGGCTTGTTCAAA [CACACA_negctrl_site1615] | 7.56 ± 0.47 |
| TAAAAAATTTTCGCGTGTACGCAAGAAAAAAAAAAT [XGTACX_site3058] | 8.04 ± 0.72 |
| TTTTTGCCATATTACACACACACATGGAAACCCCCT [CACACA_site4994] | 9.19 ± 0.085 |
| TCTTTTAACAAATAATAAGCTAATTTATATTATTAT [GTGCAC_negctrl_site655] | 7.58 ± 0.67 |
| AAAAAAATAATGTATATATAAATTTATTTACATATG [GTGCAC_negctrl_site107] | 7.42 ± 0.36 |
| TATATATTTAGTTAGTGTACAAGTTATTTAGTAGTT [XGTACX_site5133] | 8.04 ± 0.37 |
| CAAATAAATTAAAGGTGTACTTTTATAGTTACGACA [XGTACX_site3926] | 7.74 ± 0.34 |
| CATATTTTCTTGTGTACACATTTATTTTATACTATA [CACACA_site6032] | 8.88 ± 0.19 |
| TAAAAAATAAGATATACACACATATATTTATTTATA [CACACA_site7158] | 7.33 ± 0.38 |
| AAATATTTAAATATTATGTATGATTATATATATATA [CACACA_negctrl_site590] | 9.04 ± 0.085 |
| AAATAAATAAATAAATGTACACATATATATATATAT [XGTACX_site7787] | 9.36 ± 0.57 |
| TCAATAAGATTATAAAGTACTTTTGAAGATATTATA [XGTACX_site7489] | 7.54 ± 0.38 |
| TTTCTTATTTTTTTCACACACTAAACATTTCAAATG [CACACA_site5259] | 8.03 ± 0.67 |
| AAAGAGAACATAAGTACACACATGTTCTTTTAGTAA [CACACA_site2824] | 7.71 ± 0.13 |
| ATAAATATGTATTGCTGTACATATATATAAATTATC [XGTACX_site8411] | 7.71 ± 0.34 |
| AATAGGAAAACCTATACACACTTTAAAAAAAATATA [CACACA_site4977] | 7.41 ± 0.49 |
| AAAAAAAAAAAAAAAACACACAAAAGCAAGAAAAAC [CACACA_site3198] | 8.9 ± 0.54 |
| AAAGTAAAAACACATACATGCATATACACATATAAC [TGCATGCA_site341] | 7.96 ± 0.69 |
| TATAAAATTCTGACTTGTACATGTGAAAAATAATTA [XGTACX_site1396] | 7.78 ± 0.3 |
| AAAGATGGAAAAAAAAATTTGTGTGTTGAAAGATAT [GTGCAC_negctrl_site19] | 7.96 ± 0.92 |
| AAAATACAATTTCTAGCACACAAAATATTATTATAA [CACACA_site9056] | 7.78 ± 0.47 |
